Sequences and labels used below:
B1: LINE1-mini (parent)
chain: GGCAGAGCUCAACACAGCGUGGCAAAGUGGCUGUGGCUAGACUGCC

Read counts are not given, so values of variants with three or more changes are uncertain.

The variants in this series derive from B1. Briefly: self-cleavage, relative activity (ratio to wild type); higher = more cleavage; in vitro, sequencing; the parent is a self-cleaving ribozyme.
Take GGCCGAGCUCAACACAGCGUGGCAAAGUGGCUGUGGCUAGGCUUCC [A4C A41G G44U]: the self-cleavage stood at 0.09.

In the case of GGCCGAGCUCAACUCAGCGUGGCUAAGUGGCUGUGGCUAGACUGCC [A4C A14U A24U], the self-cleavage was 0.05.

On to GGCCGAGCUCAACCCAGCGUGGCAAAGUGGCUGUGGCUAGACUGGU [A4C A14C C45G C46U], for which the self-cleavage came to 0.05.

Turning to GGCCGAGCUAAACACAAAGUGCCAAAGUGGCUAUGGCUAGACUGCC [A4C C10A G17A C18A G22C G33A], the self-cleavage came to 0.01.

Regarding GGCCGAGCUCCACACAGCGUGGCAAAGUGGCUGGGGCUAGACUGCC [A4C A11C U34G], the self-cleavage worked out at 0.01.

For GGCCGAGCUCGACACAGCGUGGCAAAGUGGCUGUGGCUCGACUGCC [A4C A11G A39C], the self-cleavage is 0.01.

On to GGCCGAGCUCAACUCAGCCUGUCAAAGUGGCUGUGGCUAGACUGCC [A4C A14U G19C G22U], for which the self-cleavage turned out to be 0.05.

On to GGCCGAGCUAAACACAGCGUGGCAAAGUGGUUGUGGCUCGACUGCC [A4C C10A C31U A39C], for which the self-cleavage was found to be 0.02.

For GGCCGAGAUCAAAACAGCGUGGCCAAGUGACUGUGGCGAGACUGCC [A4C C8A C13A A24C G30A U38G], the self-cleavage worked out at 0.12.

As to GGCCGAGCUCAACACGGCGUGGCAAAGUGGCUGUGGCCAGACUGCC [A4C A16G U38C], the self-cleavage turned out to be 0.03.

Take GGCCGAGCUCAACCCAGCGUUGCAAAGUCUCUGUGGCUGGACUGCC [A4C A14C G21U G29C G30U A39G]: the self-cleavage amounted to 0.02.

In the case of GGCCGAGCUCACCACAGUGUGGCAAAGUGGCUGUGGCUACAGUUUC [A4C A12C C18U G40C C42G G44U C45U], the self-cleavage turned out to be 0.

Take GGCCGAGCUCGACACAGCGUGGCAAAGUGGCUGUGUCUAGACUGCC [A4C A11G G36U]: the self-cleavage came to 0.02.

For the variant GGCCGAGCUCAACACGGCGUGGCAAUGUGGCUGUGUCUAGACUGCC [A4C A16G A26U G36U], the self-cleavage worked out at 0.08.

As for GGCCGAGAUGAACACAGCGUGGCAAAGUGGUUGUGGCUAGACUGCC [A4C C8A C10G C31U], the self-cleavage turned out to be 0.03.

GGCCGAGCUCAACACAGCGUGGCAAGGUGGCUGUGGCUAAGCUGCC [A4C A26G G40A A41G]: the self-cleavage is 0.08.

GGCCGAGCUCACCACAGCGUGGCAAAGUGGCUGUGGCUAGACUGGC [A4C A12C C45G]: the self-cleavage turned out to be 0.01.

With GGCCGAGCUCAACACAGCGUGGCGAGGUGGCUGUGGCUAGACUGCC [A4C A24G A26G], the self-cleavage turned out to be 0.08.

For the variant GGCCGAGUUCUACACAGCGUGGCAAAGUGGCUGUGGCUAGGCUGCC [A4C C8U A11U A41G], the self-cleavage stood at 0.03.

For GGCCGAGCUCAACUCAGCGUGGCAAAGCGGCUCUGGCUAGACUGCC [A4C A14U U28C G33C], the self-cleavage was 0.04.

On to GGCCGAGGUCAAAACAUCGUGGUAAGGUGGCUGUGGCUAGACUGCC [A4C C8G C13A G17U C23U A26G], for which the self-cleavage is 0.05.

On to GGCCGAGGUCAACAUAGCGUGGCAAACUGGCUGUGGCCAGACUGCC [A4C C8G C15U G27C U38C], for which the self-cleavage came out at 0.05.

On to GGCCGAGCUAAACACAGCGUGGCAAAGUGGGUGUGGCUAGACUGCC [A4C C10A C31G], for which the self-cleavage turned out to be 0.02.

GGCCGAGCUCAUCACAGCGCGGCAAAGUGUCUGUGGCUAUACUGCC [A4C A12U U20C G30U G40U]: the self-cleavage came to 0.08.

On to GGCCGAGCUAAACACAGAGUGGCACAGUGGCUGUGACUAGACUGCC [A4C C10A C18A A25C G36A], for which the self-cleavage was found to be 0.02.

In the case of GGCCGAGCUCGACUCAGCGUGCCAAAGUGGCUGUGGCUAGACUGCC [A4C A11G A14U G22C], the self-cleavage was 0.1.

Consider GGCCGAGCUCAACACAGCGUGGCACAGUGGAUGUUGCCAGACUGCC [A4C A25C C31A G35U U38C], for which the self-cleavage amounted to 0.03.

For the variant GGCCGAGCUCAACACAGCGUGGCAACGAGGCUGUGGCCAGACUGCC [A4C A26C U28A U38C], the self-cleavage is 0.02.

For GGCCGAGCUCAACACAGCGUGGCUAAGUGGCUGUGGCUAGACAGCC [A4C A24U U43A], the self-cleavage is 0.04.

On to GGCCGAGCUCAACCCAGCGUGCCAAAGUGCCUGUAGGUAGACUGCC [A4C A14C G22C G30C G35A C37G], for which the self-cleavage came to 0.1.

Consider GGCCGAGAUCAACACAGCGUGGCAAAGUGUCUGUGGAUAGACUGCC [A4C C8A G30U C37A], for which the self-cleavage is 0.13.

Regarding GGCCGAGCUCAACACCUCGUGGCAAAAUGGCUGUGGCUACACUUCA [A4C A16C G17U G27A G40C G44U C46A], the self-cleavage came out at 0.08.

On to GGCCGAGAUCAACACAGCGUGGCAAAGUGGCUGUGGCUAAACGGCC [A4C C8A G40A U43G], for which the self-cleavage was 0.15.

GGCCGAGCUCAACACAGCGUGGCACAGUGGCUGUGGCUACACUGCC [A4C A25C G40C]: the self-cleavage is 0.05.

In the case of GGCCGAGGUCAACACAGCCUGGCAAAGUGGCUGUGGCUAGACUGCC [A4C C8G G19C], the self-cleavage stood at 0.01.

For the variant GGCCGAGAUCAACACAGCGUGGCAAAAUGGCUGUGGCUAGACGGAA [A4C C8A G27A U43G C45A C46A], the self-cleavage was 0.03.

As to GGCCGAGUUCAACAUAGCGUGGCAAAGUGGCUGUGGCUAGACUGCC [A4C C8U C15U], the self-cleavage was determined as 0.91.

For the variant GGCCGAGUUCAACACAGCGUGGCAAAGUGGCUGUGUCUAGACUGCC [A4C C8U G36U], the self-cleavage was 0.26.

Take GGCCGAGCUCCACACAGCGUGGCAAAGUGACUGUGGGUAGACUGCC [A4C A11C G30A C37G]: the self-cleavage was found to be 0.02.

With GGCCGAGCUCAUCACAGCGUGGCAACGUGGCUGUGGCUAGACAGCA [A4C A12U A26C U43A C46A], the self-cleavage is 0.03.

For GGCCGAGCUCAACACUGCGUGGGAAAGUGGCUGUGGCUAGACUGCC [A4C A16U C23G], the self-cleavage was found to be 0.24.

Consider GGCCGAGCUCAACACAGCGUGGCAAUGUGGGUGUGGCUAGCCUGCC [A4C A26U C31G A41C], for which the self-cleavage was 0.08.

Turning to GGCCGAGUUCAACACAGCGUGGCAAAGUGGCUGUGGCUACACCGCC [A4C C8U G40C U43C], the self-cleavage is 0.08.

For the variant GGCCGAGCUCAACCCAGCGUUGCAGAGUGGCUGUGGCUAGACUGUC [A4C A14C G21U A25G C45U], the self-cleavage came to 0.03.

Regarding GGCCGAGGUCAACACAGCGUGGCAAAGUGGCUGUGACUAGACUGCC [A4C C8G G36A], the self-cleavage came out at 0.29.

For the variant GGCCGAGCUCAACUCAGCGUGGCAAUGUGACUGUGGCUAGACUGCC [A4C A14U A26U G30A], the self-cleavage is 0.44.

With GGCCGAGCUCAUCACAGCGUGGCAAAGUGGCUGUGGCUAGACAGCC [A4C A12U U43A], the self-cleavage stood at 0.02.

Consider GGCCGAGCUCAGCACAGCGUGGCAAAGUGGCUGUGGCUACACUGCC [A4C A12G G40C], for which the self-cleavage came out at 0.44.

On to GGCCGAGCUCACCACAGCGUUGCAAAGAGGCUUUGGCUAGACUGCC [A4C A12C G21U U28A G33U], for which the self-cleavage was 0.12.

As to GGCCGAGCUCAGCACAGCGUGGCAAAGUGGCUGUCGCUAGACUGCC [A4C A12G G35C], the self-cleavage is 0.02.

Regarding GGCCGAGCUAAACACAGCGUGGCAAAGUGCCUGUGGCUAGACUGCC [A4C C10A G30C], the self-cleavage turned out to be 0.03.

Consider GGCCGAGAUCAAAACCGGGUGGCAAAGUGGCUGUGGCGAGACUGCC [A4C C8A C13A A16C C18G U38G], for which the self-cleavage worked out at 0.03.

Consider GGCCGAGCUCUACACAGCGUGGCAAAGUGGCUGUGACUAGACUGUC [A4C A11U G36A C45U], for which the self-cleavage turned out to be 0.01.

Consider GGCCGAGCUCAACACGGCGUGCCAAAGUGGCUGUGGCUAGACUGCC [A4C A16G G22C], for which the self-cleavage amounted to 0.02.

Take GGCCGAGCUAACCACAGCGUGGCAAACUGGCUGUGGCUAGACUACC [A4C C10A A12C G27C G44A]: the self-cleavage worked out at 0.02.

On to GGCCGAGCUCUACACAGCGUGGCAAAGUGGCUGGCGCUAGACUGCG [A4C A11U U34G G35C C46G], for which the self-cleavage is 0.02.

The values are drawn from the RNAGym collection of RNA variant scans (doi:10.7554/elife.90254).
